18 molecules from the supplement of paper PMC10369915 can be followed below.

This is one part of the list. No stated cut-off is given here; in the data, active = 3.2 or more and inactive = the rest. The signal is at background level for most entries.

Some targets named below: SHP2 C-SH2 domain E139D; SHP2 N-SH2 domain L43F; SHP2 N-SH2 domain T42A; SHP2 N-SH2 domain T52S.
Assay in all cases: enrichment score (SH2-bound / input frequency) (ratio); bacterial display of known human phosphotyrosine sites (pTyr-Var adds point mutants) read by sequencing; higher = stronger binding; tyrosines were phosphorylated by kinases first
The target of experiment [1] is SHP2 C-SH2 domain wild-type.
Experiment [2] has as its target SHP2 N-SH2 domain wild-type.
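Further: displayed peptides selected on beads carrying the immobilized SH2 domain, with library peptides lacking any tyrosine serving as negative controls.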

Consider ALPGEYIPTVF [RAC1_Y32_F28L], for which the enrichment score with SHP2 C-SH2 domain E139D (peptide library: pTyr-Var) was inactive: 1.16; in experiment [1] (peptide library: pTyr-Var), inactive: 0.865; with SHP2 N-SH2 domain L43F (peptide library: pTyr-Var) it was inactive: 1; in the experiment with SHP2 N-SH2 domain T42A (peptide library: pTyr-Var), inactive: 0.817; with SHP2 N-SH2 domain T52S (peptide library: pTyr-Var), inactive: 0.886; in experiment [2] (peptide library: pTyr-Var) it was inactive: 1.02.
Take STNSEDNYVPMNPGS [GAB2_HUMAN_452]: the enrichment score with SHP2 C-SH2 domain E139D (peptide library: Human pTyr) was inactive: 0.581; in experiment [1] (peptide library: Human pTyr) it was inactive: 0.46; in the experiment with SHP2 N-SH2 domain L43F (peptide library: Human pTyr) it was inactive: 0.552; in the experiment with SHP2 N-SH2 domain T42A (peptide library: Human pTyr) it was inactive: 0.447; in the experiment with SHP2 N-SH2 domain T52S (peptide library: Human pTyr), inactive: 0.565; in experiment [2] (peptide library: Human pTyr), inactive: 0.524.
For the molecule TTPFNYSFIFK [RAB14_Y8_A4T_YF], the enrichment score with SHP2 C-SH2 domain E139D (peptide library: pTyr-Var) was inactive: 1.18; in experiment [1] (peptide library: pTyr-Var) it was inactive: 2.16; with SHP2 N-SH2 domain L43F (peptide library: pTyr-Var), inactive: 1.51; with SHP2 N-SH2 domain T42A (peptide library: pTyr-Var), inactive: 1.59; with SHP2 N-SH2 domain T52S (peptide library: pTyr-Var) it was inactive: 1.17; in experiment [2] (peptide library: pTyr-Var) it was inactive: 1.04.
Turning to GFQAEGTYKWVNPHK [G6PD_HUMAN_507_YA], the enrichment score with SHP2 C-SH2 domain E139D (peptide library: Human pTyr) is inactive: 1.08; in experiment [1] (peptide library: Human pTyr), inactive: 0.874; in the experiment with SHP2 N-SH2 domain L43F (peptide library: Human pTyr), inactive: 0.746; with SHP2 N-SH2 domain T42A (peptide library: Human pTyr), inactive: 0.823; with SHP2 N-SH2 domain T52S (peptide library: Human pTyr), inactive: 0.887; in experiment [2] (peptide library: Human pTyr), inactive: 0.959.
As to VPVPTNLYGDFFTGD [GELS_HUMAN_86], the enrichment score is inactive: 0.608 with SHP2 C-SH2 domain E139D (peptide library: Human pTyr); inactive: 0.609 in experiment [1] (peptide library: Human pTyr); inactive: 0.663 in the experiment with SHP2 N-SH2 domain L43F (peptide library: Human pTyr); inactive: 0.649 with SHP2 N-SH2 domain T42A (peptide library: Human pTyr); inactive: 0.667 in the experiment with SHP2 N-SH2 domain T52S (peptide library: Human pTyr); inactive: 0.647 in experiment [2] (peptide library: Human pTyr).
With PLGVLYKVKVY [PTS_Y128_V124L], the enrichment score with SHP2 C-SH2 domain E139D (peptide library: pTyr-Var) is inactive: 0.632; in experiment [1] (peptide library: pTyr-Var), inactive: 0.987; in the experiment with SHP2 N-SH2 domain L43F (peptide library: pTyr-Var), inactive: 0.777; with SHP2 N-SH2 domain T42A (peptide library: pTyr-Var) it was inactive: 0.958; with SHP2 N-SH2 domain T52S (peptide library: pTyr-Var), inactive: 0.561; in experiment [2] (peptide library: pTyr-Var) it was inactive: 1.14.
Turning to PSPTRYSLSPS [RANBP2_Y785], the enrichment score in the experiment with SHP2 C-SH2 domain E139D (peptide library: pTyr-Var) is inactive: 0.651; in experiment [1] (peptide library: pTyr-Var), inactive: 0.45; with SHP2 N-SH2 domain L43F (peptide library: pTyr-Var), inactive: 0.48; with SHP2 N-SH2 domain T42A (peptide library: pTyr-Var), inactive: 0.538; in the experiment with SHP2 N-SH2 domain T52S (peptide library: pTyr-Var) it was inactive: 0.591; in experiment [2] (peptide library: pTyr-Var) it was inactive: 0.558.
For ADNDGEIYDDIADGC [FYB_HUMAN_771], the enrichment score was inactive: 1.22 with SHP2 C-SH2 domain E139D (peptide library: Human pTyr); inactive: 1.06 in experiment [1] (peptide library: Human pTyr); inactive: 1.11 with SHP2 N-SH2 domain L43F (peptide library: Human pTyr); inactive: 1.16 with SHP2 N-SH2 domain T42A (peptide library: Human pTyr); inactive: 1.43 with SHP2 N-SH2 domain T52S (peptide library: Human pTyr); inactive: 1.41 in experiment [2] (peptide library: Human pTyr).
Consider NMRPPFTYATLIRWA [FOXP3_HUMAN_342], for which the enrichment score in the experiment with SHP2 C-SH2 domain E139D (peptide library: Human pTyr) was active: 3.27; in experiment [1] (peptide library: Human pTyr) it was inactive: 2.91; with SHP2 N-SH2 domain L43F (peptide library: Human pTyr) it was inactive: 3; with SHP2 N-SH2 domain T42A (peptide library: Human pTyr), inactive: 2.64; in the experiment with SHP2 N-SH2 domain T52S (peptide library: Human pTyr), inactive: 2.98; in experiment [2] (peptide library: Human pTyr), active: 3.4.
ASVDSSLYNLPRSAS [GAB1_HUMAN_259_YA]: the enrichment score is inactive: 0.678 with SHP2 C-SH2 domain E139D (peptide library: Human pTyr); inactive: 0.498 in experiment [1] (peptide library: Human pTyr); inactive: 0.577 in the experiment with SHP2 N-SH2 domain L43F (peptide library: Human pTyr); inactive: 0.688 with SHP2 N-SH2 domain T42A (peptide library: Human pTyr); inactive: 0.576 with SHP2 N-SH2 domain T52S (peptide library: Human pTyr); inactive: 0.561 in experiment [2] (peptide library: Human pTyr).
Consider IVEFAYNDKAI [PUM3_Y259_YF], for which the enrichment score was inactive: 0.576 with SHP2 C-SH2 domain E139D (peptide library: pTyr-Var); inactive: 0.657 in experiment [1] (peptide library: pTyr-Var); inactive: 0.549 with SHP2 N-SH2 domain L43F (peptide library: pTyr-Var); inactive: 0.531 with SHP2 N-SH2 domain T42A (peptide library: pTyr-Var); inactive: 0.63 with SHP2 N-SH2 domain T52S (peptide library: pTyr-Var); inactive: 0.615 in experiment [2] (peptide library: pTyr-Var).
For TSLNSNDYGYGGQKR [FUBP1_HUMAN_58], the enrichment score with SHP2 C-SH2 domain E139D (peptide library: Human pTyr) is inactive: 0.851; in experiment [1] (peptide library: Human pTyr) it was inactive: 0.815; with SHP2 N-SH2 domain L43F (peptide library: Human pTyr) it was inactive: 1.18; with SHP2 N-SH2 domain T42A (peptide library: Human pTyr) it was inactive: 0.799; in the experiment with SHP2 N-SH2 domain T52S (peptide library: Human pTyr) it was inactive: 0.868; in experiment [2] (peptide library: Human pTyr), inactive: 0.73.
Take GRTARGSYGAIKTTA [FYB_HUMAN_559_YA]: the enrichment score with SHP2 C-SH2 domain E139D (peptide library: Human pTyr) was inactive: 0.837; in experiment [1] (peptide library: Human pTyr) it was inactive: 0.875; in the experiment with SHP2 N-SH2 domain L43F (peptide library: Human pTyr) it was inactive: 0.744; in the experiment with SHP2 N-SH2 domain T42A (peptide library: Human pTyr) it was inactive: 0.823; with SHP2 N-SH2 domain T52S (peptide library: Human pTyr), inactive: 0.811; in experiment [2] (peptide library: Human pTyr) it was inactive: 0.879.
For the molecule GFILMYDITNE [RAB3C_Y110], the enrichment score is inactive: 1.82 with SHP2 C-SH2 domain E139D (peptide library: pTyr-Var); inactive: 1.87 in experiment [1] (peptide library: pTyr-Var); inactive: 2.54 in the experiment with SHP2 N-SH2 domain L43F (peptide library: pTyr-Var); inactive: 1.63 with SHP2 N-SH2 domain T42A (peptide library: pTyr-Var); inactive: 2.74 in the experiment with SHP2 N-SH2 domain T52S (peptide library: pTyr-Var); inactive: 1.55 in experiment [2] (peptide library: pTyr-Var).
Regarding TEFRDSTYDLPRSLA [GAB2_HUMAN_266], the enrichment score was inactive: 0.561 with SHP2 C-SH2 domain E139D (peptide library: Human pTyr); inactive: 0.557 in experiment [1] (peptide library: Human pTyr); inactive: 0.58 in the experiment with SHP2 N-SH2 domain L43F (peptide library: Human pTyr); inactive: 0.56 with SHP2 N-SH2 domain T42A (peptide library: Human pTyr); inactive: 0.61 in the experiment with SHP2 N-SH2 domain T52S (peptide library: Human pTyr); inactive: 0.534 in experiment [2] (peptide library: Human pTyr).
As to IWGKKYPTCNS [PTPRZ1_Y53_N48I], the enrichment score is inactive: 1.01 with SHP2 C-SH2 domain E139D (peptide library: pTyr-Var); inactive: 0.993 in experiment [1] (peptide library: pTyr-Var); inactive: 0.924 in the experiment with SHP2 N-SH2 domain L43F (peptide library: pTyr-Var); inactive: 0.948 with SHP2 N-SH2 domain T42A (peptide library: pTyr-Var); inactive: 0.742 with SHP2 N-SH2 domain T52S (peptide library: pTyr-Var); inactive: 0.921 in experiment [2] (peptide library: pTyr-Var).
Turning to ASVDSSLYNLPRSYS [GAB1_HUMAN_259], the enrichment score with SHP2 C-SH2 domain E139D (peptide library: Human pTyr) was inactive: 0.604; in experiment [1] (peptide library: Human pTyr), inactive: 0.484; with SHP2 N-SH2 domain L43F (peptide library: Human pTyr), inactive: 0.488; in the experiment with SHP2 N-SH2 domain T42A (peptide library: Human pTyr), inactive: 0.49; in the experiment with SHP2 N-SH2 domain T52S (peptide library: Human pTyr) it was inactive: 0.616; in experiment [2] (peptide library: Human pTyr) it was inactive: 0.509.
Regarding PVGVLYKVKVY [PTS_Y128], the enrichment score in the experiment with SHP2 C-SH2 domain E139D (peptide library: pTyr-Var) was inactive: 0.846; in experiment [1] (peptide library: pTyr-Var), inactive: 0.967; with SHP2 N-SH2 domain L43F (peptide library: pTyr-Var), inactive: 1.01; with SHP2 N-SH2 domain T42A (peptide library: pTyr-Var), inactive: 0.593; with SHP2 N-SH2 domain T52S (peptide library: pTyr-Var), inactive: 0.643; in experiment [2] (peptide library: pTyr-Var), inactive: 0.748.
